Source: the RNAGym collection of RNA variant scans (doi:10.7554/elife.90254)
Read counts are not given, so values of variants with three or more changes are uncertain.

B1: LINE1-mini (parent)
chain: GGCAGAGCUCAACACAGCGUGGCAAAGUGGCUGUGGCUAGACUGCC

Variants of: B1
Assay: self-cleavage, relative activity (ratio to wild type); higher = more cleavage; in vitro, sequencing; the parent is a self-cleaving ribozyme

Row | Variant | self-cleavage
1 | G7A A26U C37G | 0.01
2 | G7A C10U A26C G29C U34G G44C | 0.02
3 | G7A A25C U28C | 0.04
4 | G7A A11C G40U G44U | 0.02
5 | A6U G7A A16G | 0.07
6 | G7A A25U U34C | 0.02
7 | G7A A24G A26U | 0.16
8 | A6U G21U C46A | 0.65
9 | A6U G22C G27A C45U | 0.45
10 | A6U G21U G29C | 0.18
11 | G7A A12G A14G U20C A24C A25G U34C | 0.04
12 | A6U G33C U34A | 0.14
13 | G7A A11C A25G G35U | 0.01
14 | A6U G33A C46A | 0.03
15 | A6U G19U U20A U28G | 0.38
16 | A6U G30C G33A C42G | 0.02
17 | G7A C13U C23A C45G | 0.16
18 | G7A A11U C45U | 0.05
19 | G7A C10U A11G C15A C23A C42A | 0.01
20 | G7A C13A G29A G35C U43C | 0.13
21 | A6U G7A C15G G33U C37G | 0.07
22 | G7A C18A G19U C31U G36U | 0.05
23 | A6U G21U A26G G36A | 0.02
24 | G7A C10G A11G | 0

Row | Variant | self-cleavage
25 | A6U C23G U32G | 0.07
26 | A6U G7A C10U A12U G19A C23A U38A | 0.01
27 | G7A C10A A26U U28C C45A | 0.01
28 | G7A A24G A39C C42G C45A | 0.02
29 | G7A A12C C23A | 0.04
30 | G7A C8A G29U C31A | 0.1
31 | A6U C31A C45G | 0.04
32 | A6U U9A C15G C42A | 0.02
33 | A6U G35A U38G | 0.01
34 | G7A C13A G30C A39G | 0
35 | G7A C18G C23G C42U | 0.04
36 | A6U G21C G33A C37A | 0.12
37 | G7A A14U U32C | 0.32
38 | G7A C13A C23A | 0.34
39 | A6U G7U G33U | 0.26
40 | G7A A16U U43G | 0.05
41 | G7A C15U C23G G44U | 0.18
42 | A6U U9G A41C | 0.02
43 | G7A C8U G19U G40C | 0.07
44 | A6U U20C A26C C45G | 0.03
45 | G7A A14G C31U | 0.04
46 | A6U U9C A12U A24C A39C | 0.03
47 | A6U G21C G44C | 0.23
48 | G7A C13U G35C | 0.27

Row | Variant | self-cleavage
49 | A6U G7C C13U U32A | 0.05
50 | G7A C13A A26G G27U | 0.22
51 | G7A A12C A24C | 0.04
52 | A6U G17U G27C A41U | 0.12
53 | G7A A14C G21U G40C | 0.04
54 | G7A C13A G22C U32C | 0.03
55 | A6U G17U G27U | 0.03
56 | G7A C13A C18A U32G | 0.04
57 | A6U U9G A11U G19U | 0.01
58 | A6U G17U C18G U34C U38A | 0.07
59 | G7A C8U C13U A14C C37G | 0.88
60 | G7A A12C G17A A26C U32C | 0.01
61 | G7A C13A U34G | 0.16
62 | G7A C8G G22A U32G U43A | 0.01
63 | G7A C10A G29C | 0.02
64 | A6U G22U G29U C37A G40U | 0.14
65 | G7A A16C C42U | 0.15
66 | A6U U9A U20C G36C | 0.06
67 | G7A A12G C15U C18G C37A | 0.18
68 | G7A A16C U28C G30C U43A | 0.97
69 | A6U G30C G33A | 0
70 | A6U G7C C23U C31U | 0.28
71 | A6U G19U C45G | 0.38
72 | A6U U9G A11U G35U G44U | 0.01

Row | Variant | self-cleavage
73 | A6U G30A C31U U38G | 0.02
74 | G7A A24G U28A | 0.17
75 | A6U C23A G44U | 0.1
76 | A6U G7C C10G A14C C18U | 0
77 | G7A C10A A11G C15G | 0.02
78 | G7A C10G G40A | 0.03
79 | G7A C10G G22A | 0.02
80 | A6U U9C U43C | 0.05
81 | G7A A16G G27C U28G G35A U43A | 0.1
82 | A6U U9A A14G C31G | 0.02
83 | A6U G19C U20A G29U G30U C37G | 0.1
84 | A6U U9A G40A U43A | 0.13
85 | A6U G7A A25G | 0.06
86 | G7A A24U A26U G44C | 0.21
87 | G7A A11G G35A U38A | 0.02
88 | G7A A24G C37A | 0.16
89 | G7A C10G A24U C31U G40U C42U | 0.01
90 | G7A A25C G33A C42G | 0.15
91 | A6U U20A U34G G35U | 0.28
92 | A6U G36A C37U | 0.05
93 | A6U G27A C31A C45G | 0.47
94 | G7A A11U C18G G19U G36A | 0.01
95 | G7A A14U C15U G21U U34C | 0.79
96 | A6U C37U C42U | 0.03

Row | Variant | self-cleavage
97 | A6U G7A A16U G29C | 0.02
98 | A6U G7A G17A G21C C23U U34G | 0.01
99 | A6U G29C C42U | 0.05
100 | A6U U9A C13A A24C | 0.07
101 | G7A A11G G40A | 0
102 | G7A C13A G27U C31A A39G | 0.7
103 | A6U G40C C45U | 0.04
104 | G7A C10G G17U G27A G30C | 0.02
105 | G7A A16U C23A A41C U43C | 0.02
106 | A6U G40U A41U | 0.01
107 | A6U C37G C42U G44C | 0.21
108 | G7A A11C U20A G22C A25G | 0.01
109 | A6U G27C U34C G35A G36A | 0.52
110 | G7A C15U G44C | 0.14
111 | G7A C8G G30C C42A | 0.02
112 | A6U G7C G17U G22C A24U U28C C37A | 0.07
113 | G7A C8A G21A A39U | 0.13
114 | A6U G27C U34C | 0.12
115 | A6U U20C A26G | 0.44
116 | G7A C10G G21U C42G C45G | 0.01
117 | A6U U9A G22A | 0.05
118 | A6U G7U A26G | 0.03
119 | G7A C8G G19A G35C A39C | 0.05
120 | G7A A14G U34A | 0.07

Row | Variant | self-cleavage
121 | G7A C10A A11C A16G C18A | 0.01
122 | G7A C13G G30C C37G A39U | 0.01
123 | A6U U32G G40U | 0.22
124 | A6U G7A C18U G21U G35A G36U C37U | 0.1
125 | G7A A14C A24G | 0.1
126 | G7A C13U U32A G33C | 0.02
127 | G7A C8G U9A A16G U20G C37A | 0.05
128 | G7A A14C U20G C37U | 0.09
129 | A6U U9C G29C G33A | 0.04
130 | G7A A12C A16U C23G C42U C46G | 0.01
131 | A6U U9G A16C G36C C37A | 0.04
132 | A6U G29U G35A G44C | 0.11
133 | A6U G21U C31U G33U | 0.04
134 | A6U G22U G35A A39U | 0.14
135 | G7A C10U A16C C37A | 0.01
136 | G7A A16U U28A U32G | 0.12
137 | G7A C8A U9A C18U G21C U28G G35U G44U | 0.06
138 | A6U G21C G40C C46U | 0.06
139 | A6U G21U G30A A41U | 0.23
140 | G7A C10G U20G | 0
141 | A6U C37A C46A | 0.03
142 | G7A C8G G17U A24G | 0.02
143 | G7A A12G G21A | 0.04
144 | G7A A12G G21U | 0.03

Row | Variant | self-cleavage
145 | G7A A14G C15G U34A C46G | 0.06
146 | G7A C10U C23U U28C A39G | 0.03
147 | G7A C10A C15U G33C C45A | 0.12
148 | A6U U9A A12U C18U G19A G35A | 0.06
149 | G7A C15A G27U G33A | 0.01
150 | G7A A11C G27A U28C | 0.02
151 | G7A C13G A14U G30C | 0.02
152 | G7A C10G G44U C45U | 0.02
153 | G7A C10A G30U C45G | 0.09
154 | A6U G7C C42G | 0.02
155 | G7A C8A C31U A39G G44C | 0.03
156 | G7A C10A U20C U28G G29U | 0.01
157 | G7A C13U U28A | 0.05
158 | G7A A14C G21A A25U C31A G36C C37U A41C | 0.17
159 | A6U G19U G30U | 1.34
160 | A6U G7A C8A | 0.45
161 | A6U G7C A12C G17A | 0.04
162 | A6U C23U G27A | 2.46
163 | A6U G19C A24U G40U C42G C45G | 0.02
164 | G7A C8U C10U A14G U28G | 0.02
165 | G7A A16U A26U C37G | 0.01
166 | G7A A12U A14C | 0.16
167 | A6U G17A G29A | 0.44
